Biological target: T1, KCTD5 (full-length, purified; SEC and cryo-EM samples) (human, UniProt Q9NXV2 1-234)
T1 sequence: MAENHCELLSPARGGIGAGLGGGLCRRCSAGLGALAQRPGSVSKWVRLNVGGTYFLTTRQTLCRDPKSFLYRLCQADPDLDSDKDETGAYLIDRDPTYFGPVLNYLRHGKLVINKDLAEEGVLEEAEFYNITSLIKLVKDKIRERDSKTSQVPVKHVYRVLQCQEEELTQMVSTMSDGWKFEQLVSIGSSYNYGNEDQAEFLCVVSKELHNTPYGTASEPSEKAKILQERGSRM
Assay: SEC

stoichiometry N: 1 molar ratio
B1: CUL3 N-terminal domain (CUL3^NTD, […]) (domain or fragment)
chain: not shown
